# Experimental data as given in PubChem BioAssay AID720709 (National Center for Advancing Translational Sciences (NCATS), 2013).
# Screen size: about 360,000 compounds; about 520 (0.14%) were called active. The shares of active, inactive and inconclusive entries below differ from those in the screen. Calls follow the shape of the dose curve; as a rule, active = well fitted inhibition curve with a large enough effect; inconclusive = small, poorly fitted or top-dose-only effect; inactive = no such curve, though single readings can be large or run the other way. Potencies of inconclusive entries are left out as doubtful fits.
# Molecular target: Rap guanine nucleotide exchange factor 3 (Homo sapiens) (UniProt O95398)
# Experiment: qHTS for Antagonist of cAMP-regulated guanine nucleotide exchange factor 3 (EPAC1): primary screen; also: nearly all actives have a fitted effect of over 50% in size;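 as to activity change, negative = inhibition: plate controls were vehicle for no effect and positive control for full effect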
# Settings: EPAC1 GEF assay, Rap1b-BODIPY-GDP exchange fluorescence; activity change, negative = inhibition: at 115 µM (top of the series)
# Potency is read from the fitted curve at half-maximal effect; tags tell the direction and shape of the fitted curve.
# Chain of UniProt O95398 (O95398 whole entry, looked up): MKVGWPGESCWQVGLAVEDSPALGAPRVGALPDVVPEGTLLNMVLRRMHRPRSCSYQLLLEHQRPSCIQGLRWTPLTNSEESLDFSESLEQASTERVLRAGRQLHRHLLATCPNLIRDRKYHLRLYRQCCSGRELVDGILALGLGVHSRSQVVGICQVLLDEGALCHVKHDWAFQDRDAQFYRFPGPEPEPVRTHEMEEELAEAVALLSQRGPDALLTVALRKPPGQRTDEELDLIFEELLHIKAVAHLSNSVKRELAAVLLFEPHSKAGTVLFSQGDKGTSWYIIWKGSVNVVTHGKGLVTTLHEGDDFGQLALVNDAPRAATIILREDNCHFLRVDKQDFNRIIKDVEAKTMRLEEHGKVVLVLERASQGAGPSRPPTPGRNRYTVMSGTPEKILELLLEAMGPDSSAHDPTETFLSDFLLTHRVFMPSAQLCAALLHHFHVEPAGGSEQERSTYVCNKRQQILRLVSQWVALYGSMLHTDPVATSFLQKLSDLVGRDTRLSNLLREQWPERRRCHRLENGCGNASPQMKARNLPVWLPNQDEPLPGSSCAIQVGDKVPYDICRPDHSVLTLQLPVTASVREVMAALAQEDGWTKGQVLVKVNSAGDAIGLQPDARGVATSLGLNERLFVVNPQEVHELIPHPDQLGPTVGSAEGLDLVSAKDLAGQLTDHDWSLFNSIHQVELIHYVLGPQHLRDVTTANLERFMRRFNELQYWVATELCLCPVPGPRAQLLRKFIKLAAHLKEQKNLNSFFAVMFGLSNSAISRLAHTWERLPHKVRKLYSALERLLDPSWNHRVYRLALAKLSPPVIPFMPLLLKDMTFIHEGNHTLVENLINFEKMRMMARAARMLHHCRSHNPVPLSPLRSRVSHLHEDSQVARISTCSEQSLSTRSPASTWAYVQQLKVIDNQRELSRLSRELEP
SMILES,Potency,"activity change, negative = inhibition"
Cc1ccc(NCc2nc3ccccc3n2C)cc1C,inactive,–
CCc1ccc(/C=C(/C#N)C(N)=S)s1,"inconclusive [inhibitor, single point]",–
O=C(Nc1ccccc1Cl)c1ccccc1Oc1ccc(C(F)(F)F)cc1[N+](=O)[O-],inactive,–
O=C(NNC(=O)c1cc2cc(Br)ccc2oc1=O)c1ccc(O)cc1O,"inconclusive [inhibitor, partial curve]",–
CCOc1ccc(CCNc2cc(C)nc3ncnn23)cc1OCC,"inconclusive [inhibitor, single point]",–
CSCC[C@H](NC(=O)N1CCn2c1nc1ccccc12)C(=O)NCc1ccccc1,inactive,–
O=C(COC(=O)[C@@H]1CCCN1S(=O)(=O)c1ccccc1F)Nc1ccc(OC(F)F)cc1,"inconclusive [inhibitor, full curve]",–
O=Cc1cn(-c2ccccc2)nc1-c1ccc(F)cc1,inactive,–
Cc1cccc(Nc2ccc(C(=O)N3CCOCC3)cn2)c1,inactive,–
CCOc1ccc(CCNC(=O)COC(=O)c2ccco2)cc1OCC,"inconclusive [inhibitor, partial curve]",–
COc1ccc(OC)c(C(=O)NC(CC(N)=O)c2ccc(NC(C)C)c([N+](=O)[O-])c2)c1 (configuration not stated),"inconclusive [inhibitor, single point]",–
COc1ccc(N2CCN(C(=O)CSc3nc4[nH]ncc4c(=O)n3-c3ccc(Br)cc3)CC2)cc1,"inconclusive [inhibitor, single point]",–
CC(=O)N1CCN(c2cc(N3CCCC3)c(F)cc2[N+](=O)[O-])CC1,–,inconclusive: -30.2% [inhibitor]
COc1cc(C(Nc2ccccn2)c2ccc3ccc(C)nc3c2O)cc(OC)c1O (configuration not stated),"inconclusive [inhibitor, partial curve, poor fit]",–
CN(CCOc1ccccc1)CC(=O)Nc1ccc([N+](=O)[O-])cc1Cl,"inconclusive [inhibitor, single point]",–
COc1cccc(-c2ncc3ccccc3c2COC(=O)N2CCOCC2)c1,inactive,–
COCCn1c(=NC(=O)c2ccc(S(=O)(=O)N3CCOCC3)cc2)sc2cc(S(N)(=O)=O)ccc21,"inconclusive [inhibitor, single point]",–
CC(=O)Nc1ccc(-c2cc(C(=O)O)c3ccccc3n2)cc1,"inconclusive [inhibitor, full curve, poor fit]",–
COc1cc(C(=O)Nc2cc(S(=O)(=O)N3CCOCC3)ccc2N2CCN(C)CC2)cc(OC)c1OC,"inconclusive [inhibitor, single point]",–
O=C(CCNC(=O)c1ccc([N+](=O)[O-])cc1)Nc1cccc(S(=O)(=O)N2CCOCC2)c1,"inconclusive [inhibitor, single point]",–
COC(=O)c1ccccc1NC(=S)NC(=O)c1ccc(C)cc1,"inconclusive [inhibitor, partial curve]",–
CCOc1ccccc1NC(=O)Cn1nnc(C(=O)NCc2ccco2)c1N,"inconclusive [inhibitor, partial curve]",–
COc1ccc2oc(C(=O)Nc3ccc(N4CCOCC4)cc3)c(C)c2c1,"inconclusive [inhibitor, full curve]",–

SMILES,Potency,"activity change, negative = inhibition"
Cc1ccc(/C=C2\SC(N3CCN(C(c4ccccc4)c4ccccc4)CC3)=NC2=O)o1,inactive,–
O=C(/C=C/[C@H]1O[C@@H](n2ccc(=O)[nH]c2=O)[C@H](O)[C@@H]1O)N1CCN(CCc2ccccc2)CC1,"inconclusive [inhibitor, single point]",–
CC(C)C[C@H](NC(=O)OC(C)(C)C)c1nnc(SCc2cccc(F)c2)o1,"inconclusive [inhibitor, full curve, poor fit]",–
O=C(COc1ccc(Cl)cc1Cl)NNC(=S)NCc1ccco1,"inconclusive [inhibitor, partial curve]",–
Cc1ccc(-n2nc(C)c3c2OC(N)=C(C#N)C3c2ccoc2)cc1 (configuration not stated),"inconclusive [inhibitor, single point]",–
CCOc1ccccc1/C=C/c1onc(C)c1S(=O)(=O)N1CCC(C(=O)NC)CC1,"inconclusive [inhibitor, full curve, poor fit]",–
CCOc1ccc(Br)cc1S(=O)(=O)Nc1ccc(C(=O)Nc2ccccc2OC)cc1,"inconclusive [inhibitor, partial curve]",–
CC(C)c1ccc(Nc2nnns2)cc1,inactive,–
Cn1ccc2c(-c3ccc(C(N)=O)cc3)cc3c(c21)C1CCC3C1 (configuration not stated),inactive,–
COC(=O)c1c(NC(=O)/C=C/C(=O)O)sc(Cc2ccccc2)c1C,inactive,–
CCNC(=S)NNC(=O)CSc1nc2ccccc2n1C,"inconclusive [inhibitor, full curve, poor fit]",–
COc1cccc(/C=C2\Oc3cc(OCC(=O)N4CCCCC4)ccc3C2=O)c1OC,"inconclusive [inhibitor, partial curve, poor fit]",–
COc1cc(C(=O)OCC(=O)Nc2ccc(SC(F)F)cc2)cc(OC)c1OC,"inconclusive [inhibitor, partial curve, poor fit]",–
CC(C)(C)C1CCC(=O)N(CCOc2ccccc2)CC1 (configuration not stated),inactive,–
O=C(NCCc1ccccc1)C1CCCN(C(=O)Nc2ccc(F)cc2)C1 (configuration not stated),"inconclusive [inhibitor, full curve, poor fit]",–
O=C(Nc1ccc(Cl)cc1N1CCOCC1)C1CCCCC1,inactive,–
CCOC(=O)c1c(-c2ccccc2)csc1NC(=O)C(C)NCc1ccco1 (configuration not stated),"inconclusive [inhibitor, full curve, poor fit]",–
COc1ccccc1C1CC(=O)NC(SCC(=O)Nc2ccccc2)=C1C#N (configuration not stated),"inconclusive [inhibitor, single point]",–
CC(C)c1ccc(Nc2nnc(SCC(=O)c3nnc(-c4ccccc4)o3)s2)cc1,"inconclusive [inhibitor, single point]",–
O=C(O)c1ccc(-n2ncc3c2/C(=C/c2cccc([N+](=O)[O-])c2)CC3)cc1,inactive,–
Clc1ccc(-[n+]2c(-c3cccc(Br)c3)[nH]c3nc4ccccc4nc32)cc1,inactive,–
Cc1cccc(NC(=O)C(=O)NCc2ccc3c(c2)OCO3)c1C,–,inconclusive: 0.303% [inhibitor]
COc1ccc(NC(=O)CSc2ncc(-c3ccc(F)cc3)n2Cc2ccco2)cc1,"inconclusive [inhibitor, full curve, poor fit]",–

SMILES,Potency,"activity change, negative = inhibition"
CC(C)C[C@@H](CSc1ccc(Br)cc1)N1CCN(CCc2ccccc2)CCC1=O,inactive,–
O=C(O)CCN1C(=O)/C(=C\c2cccc(OCC(=O)Nc3ccc(Cl)cc3)c2)SC1=S,"inconclusive [inhibitor, single point]",–
Cc1ccc(Cn2c(C)nc3c(c2=O)c2nc4ccccc4nc2n3Cc2ccco2)cc1,"inconclusive [inhibitor, full curve, poor fit]",–
COC(=O)CSc1nnc(-c2ccc(NS(=O)(=O)c3ccccc3)cc2)o1,inactive,–
Cc1cc(C(O)c2ncc(-c3ccc(Oc4ccccc4)cc3)[nH]2)ccc1F (configuration not stated),inactive,–
COc1ccc(/C=C/C(=O)N2CCCc3ccccc32)c(OC)c1,"inconclusive [inhibitor, partial curve]",–
COc1ccc2c(c1)CCCC21NC(=O)N(CC(=O)NC(=O)NCc2ccccc2)C1=O (configuration not stated),"inconclusive [inhibitor, partial curve, poor fit]",–
Cc1cc2[nH]c(=O)c(=O)[nH]c2cc1S(=O)(=O)Nc1cccc(Cl)c1C,inactive,–
CC(=O)c1ccc(N2CCN(S(=O)(=O)c3ccc4c(c3)NC(=O)CO4)CC2)cc1,"inconclusive [inhibitor, full curve, poor fit]",–
COC(=O)/C(=C(/F)Sc1cc(C)c(O)c(C)c1)C(F)(F)F,"inconclusive [inhibitor, partial curve]",–
CC(C)C[C@@H](CSc1ccccc1)N1CCN(CCc2ccccc2)CCC1=O,"inconclusive [inhibitor, single point]",–
CC(O)(c1ccccc1)c1nc(-c2ccc(F)c(Cl)c2)cs1 (configuration not stated),"inconclusive [inhibitor, full curve, poor fit]",–
C=C(C(=O)c1ccccc1)C(C)C(=C)C(=O)c1ccccc1,inactive,–
COc1cc(CNCc2ccncc2)cc(Br)c1OCc1ccccc1F,inactive,–
O=C(Oc1ccc(N2C(=O)CCC2=O)cc1)c1ccccc1,"inconclusive [inhibitor, single point]",–
COc1ccccc1C1CCN(c2ccc(CO)cc2[N+](=O)[O-])CC1,"inconclusive [inhibitor, partial curve]",–
COc1cccc(-c2noc(CCC(=O)N3CCN(c4cc(C)ccc4C)CC3)n2)c1,"inconclusive [inhibitor, single point]",–
Cc1ccc(CN2CCN(Cc3ccccn3)CC2CCO)cc1 (configuration not stated),"inconclusive [inhibitor, full curve, poor fit]",–
CCC(=O)N(Cc1ccco1)c1nc(-c2cc(OC)ccc2OC)cs1,"inconclusive [inhibitor, full curve, poor fit]",–
O=C(O)/C=C/C(=O)c1ccc(O)cc1,"inconclusive [inhibitor, partial curve]",–
CCN(CC)C(=O)/C(=C/c1cccc([N+](=O)[O-])c1)NC(=O)c1ccco1,inactive,–
